Measurements published in paper PMC9911399, “Two distinct binding modes provide the RNA-binding protein RbFox with extraordinary sequence specificity”.
Substitutions are numbered along the chain they refer to; changes in the protein carry UniProt numbers. This is one part of the list.

T1: RBFOX1 RRM (Homo sapiens, UniProt Q9NWB1 109-208)
T1 sequence: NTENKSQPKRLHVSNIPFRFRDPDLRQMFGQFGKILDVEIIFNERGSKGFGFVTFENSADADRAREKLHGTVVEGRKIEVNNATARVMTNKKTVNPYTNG

B1: CUAUCAA (DNA:RNA)
RNA: GGGAGACCGGAAUUCAGAUUGUCCCUAUCAAUUAAAUCCCGUCGUAGCCACCA
DNA 1: CAATCTGAATTCCGGTCTCCC
DNA 2: TGGTGGCTACGACGGGATT
B2: AGACGAU (DNA:RNA)
RNA: B1 RNA with C25A, U26G, U28C, C29G, A31U
DNA 1: CAATCTGAATTCCGGTCTCCC
DNA 2: TGGTGGCTACGACGGGATT
B3: CGACGUG (DNA:RNA)
RNA: B1 RNA with U26G, U28C, C29G, A30U, A31G
DNA 1: CAATCTGAATTCCGGTCTCCC
DNA 2: TGGTGGCTACGACGGGATT
B4: UCCGAGU (DNA:RNA)
RNA: GGGAGACCGGAAUUCAGAUUGUCCUCCGAGUUUAAAUCCCGUCGUAGCCACCA
DNA 1: CAATCTGAATTCCGGTCTCCC
DNA 2: TGGTGGCTACGACGGGATT
B5: AGGAUAA (DNA:RNA)
RNA: B1 RNA with C25A, U26G, A27G, U28A, C29U
DNA 1: CAATCTGAATTCCGGTCTCCC
DNA 2: TGGTGGCTACGACGGGATT
B6: AGAACCC (DNA:RNA)
RNA: B1 RNA with C25A, U26G, U28A, A30C, A31C
DNA 1: CAATCTGAATTCCGGTCTCCC
DNA 2: TGGTGGCTACGACGGGATT
B7: GCCAAUA (DNA:RNA)
RNA: B4 RNA with U25G, G28A, G30U, U31A
DNA 1: CAATCTGAATTCCGGTCTCCC
DNA 2: TGGTGGCTACGACGGGATT
B8: UGACGGA (DNA:RNA)
RNA: B1 RNA with C25U, U26G, U28C, C29G, A30G
DNA 1: CAATCTGAATTCCGGTCTCCC
DNA 2: TGGTGGCTACGACGGGATT
B9: CUACCAU (DNA:RNA)
RNA: B1 RNA with U28C, A31U
DNA 1: CAATCTGAATTCCGGTCTCCC
DNA 2: TGGTGGCTACGACGGGATT
B10: AGCAAAU (DNA:RNA)
RNA: B4 RNA with U25A, C26G, G28A, G30A
DNA 1: CAATCTGAATTCCGGTCTCCC
DNA 2: TGGTGGCTACGACGGGATT
B11: UAUGCGA (DNA:RNA)
RNA: B4 RNA with C26A, C27U, A29C, U31A
DNA 1: CAATCTGAATTCCGGTCTCCC
DNA 2: TGGTGGCTACGACGGGATT
B12: CACCCAA (DNA:RNA)
RNA: B1 RNA with U26A, A27C, U28C
DNA 1: CAATCTGAATTCCGGTCTCCC
DNA 2: TGGTGGCTACGACGGGATT
B13: GAAACUG (DNA:RNA)
RNA: B1 RNA with C25G, U26A, U28A, A30U, A31G
DNA 1: CAATCTGAATTCCGGTCTCCC
DNA 2: TGGTGGCTACGACGGGATT
B14: UAAGAAC (DNA:RNA)
RNA: B4 RNA with C26A, C27A, G30A, U31C
DNA 1: CAATCTGAATTCCGGTCTCCC
DNA 2: TGGTGGCTACGACGGGATT
B15: UUUAAUG (DNA:RNA)
RNA: B4 RNA with C26U, C27U, G28A, G30U, U31G
DNA 1: CAATCTGAATTCCGGTCTCCC
DNA 2: TGGTGGCTACGACGGGATT
B16: CUCUGUC (DNA:RNA)
RNA: B1 RNA with A27C, C29G, A30U, A31C
DNA 1: CAATCTGAATTCCGGTCTCCC
DNA 2: TGGTGGCTACGACGGGATT
B17: UACAGGG (DNA:RNA)
RNA: B4 RNA with C26A, G28A, A29G, U31G
DNA 1: CAATCTGAATTCCGGTCTCCC
DNA 2: TGGTGGCTACGACGGGATT
B18: GCGUAUG (DNA:RNA)
RNA: B4 RNA with U25G, C27G, G28U, G30U, U31G
DNA 1: CAATCTGAATTCCGGTCTCCC
DNA 2: TGGTGGCTACGACGGGATT
B19: GACGACG (DNA:RNA)
RNA: B4 RNA with U25G, C26A, G30C, U31G
DNA 1: CAATCTGAATTCCGGTCTCCC
DNA 2: TGGTGGCTACGACGGGATT
B20: CUUAUGC (DNA:RNA)
RNA: B1 RNA with A27U, U28A, C29U, A30G, A31C
DNA 1: CAATCTGAATTCCGGTCTCCC
DNA 2: TGGTGGCTACGACGGGATT

Biological target: T1, RBFOX1 RRM
Assay: EMSA; HiTS-Eq, 1 nM pool, 10 min; buffer printed only for the single-RNA assays: 10 mM Tris pH 7.5, 150 mM NaCl, 3.4 mM EDTA, 0.001% NP-40, 30 C
Conditions: tags: His6 N-terminal (pET28a); label: 5' 32P
How it was run: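 Purified wild-type or mutant RbFox RRM at increasing concentrations was equilibrated with 1 nM of 5′-radiolabelled RNA carrying 7 randomized nucleotides for 10 min in 50 µL. Unbound RNA was separated by 8% native PAGE and sequenced. Relative association constants came from read-count changes of each RNA species compared with the control reaction, normalised to the cognate motif.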

Binder | binding signal
B1 | 0.00339 KA relative to UGCAUGU
B2 | 0.00914 KA relative to UGCAUGU
B3 | 0.0175 KA relative to UGCAUGU
B4 | 0.00885 KA relative to UGCAUGU
B5 | 0.0109 KA relative to UGCAUGU
B6 | 0.00472 KA relative to UGCAUGU
B7 | 0.00209 KA relative to UGCAUGU
B8 | 0.00668 KA relative to UGCAUGU
B9 | 0.00128 KA relative to UGCAUGU
B10 | 0.00423 KA relative to UGCAUGU
B11 | 0.0135 KA relative to UGCAUGU
B12 | 0.00202 KA relative to UGCAUGU
B13 | 0.0107 KA relative to UGCAUGU
B14 | 0.0116 KA relative to UGCAUGU
B15 | 0.0116 KA relative to UGCAUGU
B16 | 0.00978 KA relative to UGCAUGU
B17 | 0.00573 KA relative to UGCAUGU
B18 | 0.0166 KA relative to UGCAUGU
B19 | 0.0136 KA relative to UGCAUGU
B20 | 0.0123 KA relative to UGCAUGU
